Assay results: PubChem BioAssay AID504466 (National Center for Advancing Translational Sciences (NCATS), 2011)
In all, about 330,000 compounds went through this assay and about 4,200 (1.3%) were called active. The shares of active, inactive and inconclusive entries below differ from those in the screen. Calls come from the whole dose curve; as a rule, active = well fitted activation curve with a large enough effect; inconclusive = small, poorly fitted or top-dose-only effect; inactive = no such curve, though single readings can be large or run the other way. Where the call is inconclusive, the potency comes from a doubtful curve fit.

assay: qHTS screen for small molecules that induce genotoxicity in human embryonic kidney (HEK293T) cells expressing luciferase-tagged ELG1; conditions: HEK293T ELG1-luciferase reporter, luminescence, 16 h; series mostly up to 46 µM; note: nearly all actives have a fitted effect of over 60% in size
Method in brief: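 Quantitative HTS format in 1536-well plates. HEK293T ELG1-luciferase reporter cells receive test compound and are incubated 16 hr at 37 °C, 5% CO2; ONE-Glo added, 30 min room temperature, then luminescence read.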
Potency is the fitted concentration of half-maximal effect; tags give direction and shape of the fitted curve.

Row | SMILES | Potency
1 | CNC(=O)O/N=C(\N)Cc1csc2ccccc12 | inconclusive: 13 µM [activator, partial curve, poor fit]
2 | Cc1cc(C(=O)CS(=O)(=O)c2ccc(F)cc2)cc(C)c1OC(=O)N(C)C | inconclusive: 2.59 µM [activator, partial curve, poor fit]
3 | CCC(C)c1ccc(N2C(=O)NC(=O)/C(=C/c3cccn3CCOc3ccc(C)cc3)C2=O)cc1 (stereo not drawn) | inconclusive: 20.6 µM [activator, partial curve, poor fit]
4 | O=C(c1ccco1)c1cn(Cc2ccccc2Cl)c2ccccc12 | inconclusive: 23.1 µM [activator, partial curve, poor fit]
5 | CC1=NCCc2c1[nH]c1cc(O)ccc21 | inactive
6 | NCCc1ccc(S(=O)(=O)F)cc1 | inconclusive: 20.6 µM [activator, partial curve, poor fit]
7 | O=c1[nH]c(=S)[nH]c(O)c1N=Nc1ccc2c(c1)OCO2 | inconclusive: 16.4 µM [activator, partial curve, poor fit]
8 | CCC(=NCCc1c[nH]c2ccccc12)c1c(O)n(-c2ccc(C)cc2)c(=O)[nH]c1=O | inactive
9 | Nc1c2c(nc3ccccc13)CCN(Cc1ccccc1)C2 | inactive
10 | Nc1ccc(N=Nc2ccccc2)cc1 | inconclusive: 20.6 µM [activator, single point]
11 | C=CCn1c(O)c(C(C)=NCCc2ccccc2)c(=O)[nH]c1=O | inconclusive: 25.9 µM [activator, partial curve, poor fit]
12 | COc1ccc(C(=O)OCC(=O)Nc2ccc([N+](=O)[O-])cc2OC)c(O)c1 | inconclusive: 18.3 µM [activator, single point]
13 | CCN1CCN(c2nc3ccccc3s2)CC1 | inconclusive: 8.2 µM [activator, partial curve]
14 | Cc1ccc(/C=C2\C(=O)NC(=S)N(c3ccc(F)cc3)C2=O)o1 | inactive
15 | CSc1nnc(OC(=O)N(C)C)n1-c1ccc(Cl)cc1 | inactive
16 | Cc1ccc(-c2nn(Cc3ccccc3)cc2C=O)cc1 | inactive
17 | CN1C(=O)C(=Cc2ccccc2OS(=O)(=O)c2ccccc2)C(=O)N(C)C1=O | inconclusive: 32.6 µM [activator, partial curve, poor fit]
18 | Cc1cccc(OCCCn2c(=O)oc3ccccc32)c1 | inconclusive: 23.1 µM [activator, partial curve, poor fit]
19 | O=C1OC(=O)C2C3CCC(O3)C12 (stereo not drawn) | inconclusive: 20.6 µM [activator, partial curve, poor fit]
20 | C=CCn1c(O)c(C(CC)=NCc2ccc3c(c2)OCO3)c(=O)[nH]c1=O | inconclusive: 18.3 µM [activator, partial curve, poor fit]
21 | O=C1NC(c2cccnc2)Nc2sc3c(c21)CCCC3 (stereo not drawn) | inconclusive: 25.9 µM [activator, single point]
22 | COc1ccc(CN2CCNCC2)c(OC)c1OC | inconclusive: 10.3 µM [activator, partial curve, poor fit]
23 | O=C1C=C2C=C[C@@H]3CC2(O1)[C@H]1CCCCN31 | inconclusive: 3.66 µM [activator, single point]

Row | SMILES | Potency
24 | CCc1ccc(N2C(=O)NC(=O)/C(=C\C=C\c3ccco3)C2=O)cc1 | inactive
25 | COc1ccc(NC(=O)O/N=C/c2ccccc2)cc1 | inconclusive: 16.4 µM [activator, partial curve]
26 | c1ccc(-c2cc(-c3ccccc3)[n+](-c3ccccc3)c(-c3ccccc3)c2)cc1 | inactive
27 | COc1cccc(-c2nc3ccc(N4CCN(C)CC4)cc3[nH]2)c1 | inconclusive: 0.651 µM [activator, single point]
28 | c1ccc2sc(C3CCCNC3)nc2c1 (stereo not drawn) | inconclusive: 20.6 µM [activator, partial curve]
29 | Cc1cnn(-c2cc(Oc3ccccc3)ncn2)c1 | active: 1.46 µM
30 | CC[C@@]1(C(=O)OC)N[C@H](CN(C)C(=O)Nc2ccc(OC)cc2)[C@@H]2C(=O)N(Cc3ccccc3)C(=O)[C@@H]21 | inconclusive: 16.4 µM [activator, partial curve, poor fit]
31 | Nc1ccccc1C(=O)OCC(=O)N1CCc2ccccc21 | active: 9.2 µM
32 | Cc1ccc(NC(=O)Nc2cccc3ccccc23)cc1 | inconclusive: 18.3 µM [activator, single point]
33 | O=C(Nc1nc2c(s1)CCCC2)Oc1ccccc1 | inconclusive: 20.6 µM [activator, single point]
34 | CCOc1ccc(N2C(=O)c3ccccc3C2=O)cc1 | inconclusive: 20.6 µM [activator, partial curve, poor fit]
35 | C[C@@H]1CC2(CCCC[N+]2(C)C)C[C@H]1C | inconclusive: 0.92 µM [activator, partial curve, poor fit]
36 | COC(=O)c1ccc(CC(C(=O)c2ccccc2)N(C)C)cc1 (stereo not drawn) | inconclusive: 20.6 µM [activator, partial curve, poor fit]
37 | CCOC(=O)c1cccc(NC2c3ccccc3C(=O)N2Cc2ccco2)c1 (stereo not drawn) | inconclusive: 20.6 µM [activator, partial curve, poor fit]
38 | CCC(=NCc1ccco1)c1c(O)[nH]c(=O)[nH]c1=O | inconclusive: 7.31 µM [activator, single point]
39 | COc1ccc(-c2cc(=Nc3ccccc3)c3cc(C)ccc3o2)cc1 | inconclusive: 11.6 µM [activator, partial curve]
40 | COc1ccc(CN2C(=O)NC(=O)/C(=C\c3ccc(OC)c(OC)c3OC)C2=O)cc1 | inconclusive: 16.4 µM [activator, single point]
41 | Cc1ccc(N=Nc2cc(C)ccc2N)cc1 | active: 0.461 µM
42 | CCCCn1c(=O)[nH]c(=O)c2c1nc(-c1ccc(OC(F)F)c(OC)c1)n2C | inconclusive: 20.6 µM [activator, single point]
43 | COc1cc(/C=C2/C(=O)NC(=O)N(c3ccccc3)C2=O)ccc1O | inactive
44 | CNC(=O)c1cccn(Cc2ccc(C(F)(F)F)cc2)c1=O | active: 18.3 µM
45 | BrCC1C[n+]2c(SCc3ccccc3)nc3sc4c(c3c2O1)CCCC4 (stereo not drawn) | inconclusive: 23.1 µM [activator, partial curve, poor fit]
46 | Oc1ccc(Cl)cc1CN1CCN(Cc2ccccc2)CC1 | inactive

Row | SMILES | Potency
47 | O=C(CCCOc1ccc(Cl)cc1Cl)N1CCC2(CC1)OCCO2 | inconclusive: 20.6 µM [activator, partial curve, poor fit]
48 | CCc1ccc(-c2nn(Cc3ccccc3)cc2C=O)cc1 | inconclusive: 5.8 µM [activator, partial curve]
49 | O=C(Nc1nnc(SCc2ccccc2Cl)s1)C1COc2ccccc2O1 (stereo not drawn) | inconclusive: 18.4 µM [activator, partial curve, poor fit]
50 | O=C(CSCc1ccccc1)Nc1ccc2c(c1)OCO2 | inconclusive: 10.3 µM [activator, partial curve]
51 | O=C1NC(=S)N(C2CC2)C(=O)/C1=C/c1ccc2c(c1)CCN2CCCCl | inconclusive: 18.4 µM [activator, partial curve, poor fit]
52 | CC(Cc1ccccc1)NC(=O)NC(C)Cc1ccccc1 (stereo not drawn) | active: 11.6 µM
53 | COc1cc([C@@H]2c3cc4c(cc3[C@@H](OC)[C@H]3COC(=O)[C@H]23)OCO4)cc(OC)c1O | inconclusive: 20.6 µM [activator, single point]
54 | CC(C)c1ccc(N=Nc2c(O)[nH]c(=O)[nH]c2=O)cc1 | inconclusive: 20.6 µM [activator, partial curve, poor fit]
55 | Cc1ccc(S(=O)(=O)N2CCCC2c2cccnc2)cc1 (stereo not drawn) | inactive
56 | CCOCCN1CCN(c2nnc3n2-c2ccc(Cl)cc2C(c2ccccc2Cl)=NC3)CC1 | inactive
57 | COc1ccc(-n2c(O)c(/C=C3\C=Nc4ccc(Br)cc43)c(=O)[nH]c2=O)cc1 | inconclusive: 29.1 µM [activator, single point]
58 | CN(C)C(=O)Oc1ccc2c(c1)O/C(=C\c1ccc(Cl)cc1)C2=O | inconclusive: 23.1 µM [activator, partial curve, poor fit]
59 | CC1(C)CN=C(Nc2nc3ccccc3s2)S1 | active: 5.8 µM
60 | CN1CCN(c2ccc(/C=C3\C(=O)NC(=S)N(c4cccc(Br)c4)C3=O)o2)CC1 | inconclusive: 18.4 µM [activator, partial curve, poor fit]
61 | O=C1NC(=O)N(c2ccccc2F)C(=O)/C1=C/c1cn(CC(=O)N2CCOCC2)c2ccccc12 | inconclusive: 20 µM [activator, single point]
62 | Cc1cccc(C)c1Oc1nc(-c2ccccc2)ncc1S(=O)(=O)c1ccccc1 | inconclusive: 29.1 µM [activator, single point]
63 | Cc1ccc(C(C)C)c(OCCn2c(=O)oc3ccccc32)c1 | inconclusive: 20.6 µM [activator, partial curve, poor fit]
64 | CCOC(=O)C1=C(NC(=S)NC(=O)c2ccccc2)c2ccccc2CC12CCCC2 | inactive
65 | O=C(NC1CC1)C1CSC(c2cccnc2)=N1 (stereo not drawn) | inactive
66 | Nc1c(C(=O)NCC2CCCO2)c2nc3ccccc3nc2n1Cc1ccco1 (stereo not drawn) | inactive
67 | CNC(=O)Oc1cccc(-c2cn3cc(Cl)ccc3n2)c1 | inconclusive: 3.66 µM [activator, single point]
68 | Cn1cccc1/C=C1\C(=O)NC(=O)N(Cc2ccccc2Cl)C1=O | inconclusive: 20.6 µM [activator, single point]
